Data on 31 variants can be found in the RNAGym collection of RNA variant scans (doi:10.1093/nar/gkz1192).

B1: CPEB3 Ribozyme (parent)
chain: UAACAGGGGGCCACAGCAGAAGCGUUCACGUCGCAGCCCCUGUCAGAUUCUGGUGAAUCUGCGAAUUCUGCUGUAUAUCUC

Read counts are not given, so values of variants with three or more changes are uncertain.

The variants in this data set derive from B1. In words: self-cleavage, relative activity (ratio to wild type); higher = more cleavage; in vitro, sequencing. Summed up: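 CPEB3 self-cleaving ribozyme mutant libraries were made by rounds of error-prone PCR, barcoded, and transcribed in vitro with T7 RNA polymerase for 5 hours at 37°C. Cleavage occurred during transcription and a 15 min DNase I step before EDTA stop. RNAs were reverse transcribed with template switching and Illumina-sequenced, with DNA sequencing mapping barcodes to variants. Relative activity is the variant's cleaved/total read fraction divided by wild type's (minimum 5 reads), averaged across three batches.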
As for UAACAGGGGGCCACAGCAGAAGCGUUCACGUCGCAGCCCCUGUCAGAUUCUGGUGAAUCUGCGAAUUCCGCUGUAAACCUC [U69C U76A U78C], the self-cleavage is 0.74.

Take UAACAGGGGGCCACAGCAGAAGCGUUCACGUCGCAGCCCCUGUCAGAUUCUGGUGAAUCUGCAAAUUCAGCCGUAUAUCUC [G63A U69A U72C]: the self-cleavage is 0.32.

UAACAGGGGGCCACAGCAGAAGCGUUCACGUCGCAGCCCCUGUCAGAUUCUGGUGAAUCUGCUAAUCCUGCUGUUUAUCUC [G63U U67C A75U]: the self-cleavage worked out at 0.38.

With UAACAGGGGGCCACAGCAGAAGCGUUCACGUCGCAGCCCCUGUCAGAUUCUGGUGAAUCUGAGAAUUCUGCUGUAUGUCUU [C62A A77G C81U], the self-cleavage was determined as 0.19.

UAACAGGGGGCCACAGCAGAAGCGUUCACGUCGCAGCCCCUGUCAGAUUCUGGUGAAUCUGCGAAUACAGCUGUUUAUCUC [U67A U69A A75U]: the self-cleavage came out at 0.22.

With UAACAGGGGGCCACAGCAGAAGCGUUCACGUCGCAGCCCCUGUCAGAUUCUGGUGAAUCUGCGAGUUCCGCUGUAUAACUC [A65G U69C U78A], the self-cleavage is 0.37.

For UAACAGGGGGCCACAGCAGAAGCGUUCACGUCGCAGCCCCUGUCAGAUUCUGGUGAAUCUGCGAAUUCUGCUGCAAUUCUC [U74C U76A A77U], the self-cleavage came to 1.24.

Turning to UAACAGGGGGCCACAGCAGAAGCGUUCACGUCGCAGCCCCUGUCAGAUUCUGGUGAAUCUGCGGACUCCGCUGUAUAUCUC [A64G U66C U69C], the self-cleavage worked out at 0.22.

With UAACAGGGGGCCACAGCAGAAGCGUUCACGUCGCAGCCCCUGUCAGAUUCUGGUGAAUCUGCGGAUACCGUUGUAUAUCUC [A64G U67A U69C C71U], the self-cleavage was 0.25.

For the variant UAACAGGGGGCCACAGCAGAAGCGUUCACGUCGCAGCCCCUGUCAGAUUCUGGUGAAUCUGCUAAUUCGGCAGUAUAUCUC [G63U U69G U72A], the self-cleavage worked out at 0.46.

For the variant UAACAGGGGGCCACAGCAGAAGCGUUCACGUCGCAGCCCCUGUCAGAUUCUGGUGAAUCUGGGAAGUCUGCUGUAUAACUC [C62G U66G U78A], the self-cleavage was found to be 0.13.

In the case of UAACAGGGGGCCACAGCAGAAGCGUUCACGUCGCAGCCCCUGUCAGAUUCUGGUGAAUCUGCGAUUUCUGCUGCAAAUCUC [A65U U74C U76A], the self-cleavage stood at 0.55.

In the case of UAACAGGGGGCCACAGCAGAAGCGUUCACGUCGCAGCCCCUGUCAGAUUCUGGUGAAUCUGCGAAUCCCACCGUAUAUCUC [U67C U69C G70A U72C], the self-cleavage worked out at 0.26.

UAACAGGGGGCCACAGCAGAAGCGUUCACGUCGCAGCCCCUGUCAGAUUCUGGUGAAUCUGGGAUUUCUGCUGUAUAGCUC [C62G A65U U78G]: the self-cleavage amounted to 0.15.

As to UAACAGGGGGCCACAGCAGAAGCGUUCACGUCGCAGCCCCUGUCAGAUUCUGGUGAAUCUGCGGAUUCUGCUGAAUAUCUG [A64G U74A C81G], the self-cleavage stood at 1.29.

For the variant UAACAGGGGGCCACAGCAGAAGCGUUCACGUCGCAGCCCCUGUCAGAUUCUGGUGAAUCUGCGAAUUCAGCUGAAUACCUC [U69A U74A U78C], the self-cleavage came out at 0.58.

Consider UAACAGGGGGCCACAGCAGAAGCGUUCACGUCGCAGCCCCUGUCAGAUUCUGGUGAAUCCGCGAAUUCUGCUGUACAUCAC [U60C U76C U80A], for which the self-cleavage was determined as 0.6.

On to UAACAGGGGGCCACAGCAGAAGCGUUCACGUCGCAGCCCCUGUCAGAUUCUGGUGAAUCUCCGGGUUCUGCUGUAUAUCCC [G61C A64G A65G U80C], for which the self-cleavage was found to be 0.25.

As for UAACAGGGGGCCACAGCAGAAGCGUUCACGUCGCAGCCCCUGUCAGAUUCUGGUGAAUCUGCGAAUUCAGCCGUAUGUCUC [U69A U72C A77G], the self-cleavage was determined as 0.49.

On to UAACAGGGGGCCACAGCAGAAGCGUUCACGUCGCAGCCCCUGUCAGAUUCUGGUGAAUCUGCGUAUUCUGUUGUAUACCUC [A64U C71U U78C], for which the self-cleavage turned out to be 0.18.

As to UAACAGGGGGCCACAGCAGAAGCGUUCACGUCGCAGCCCCUGUCAGAUUCUGGUGAAUCUGCGAAUUCAGCUGCAUACCUC [U69A U74C U78C], the self-cleavage turned out to be 0.85.

Turning to UAACAGGGGGCCACAGCAGAAGCGUUCACGUCGCAGCCCCUGUCAGAUUCUGGUGAAUCUGCGAACUCUGCUGUACAUCCC [U66C U76C U80C], the self-cleavage was 0.54.

In the case of UAACAGGGGGCCACAGCAGAAGCGUUCACGUCGCAGCCCCUGUCAGAUUCUGGUGAAUCUGCCAAUCCUGCCGUAUAUCUC [G63C U67C U72C], the self-cleavage was 0.24.

Regarding UAACAGGGGGCCACAGCAGAAGCGUUCACGUCGCAGCCCCUGUCAGAUUCUGGUGAAUCUGCGAAUUCUGCCGCAUACCUC [U72C U74C U78C], the self-cleavage was found to be 1.31.

As for UAACAGGGGGCCACAGCAGAAGCGUUCACGUCGCAGCCCCUGUCAGAUUCUGGUGAAUCUGUGGAUUCUGCUGUAAAUCUC [C62U A64G U76A], the self-cleavage worked out at 0.18.

Regarding UAACAGGGGGCCACAGCAGAAGCGUUCACGUCGCAGCCCCUGUCAGAUUCUGGUGAAUCUGAGAACUCUGCUGUUUAUCUC [C62A U66C A75U], the self-cleavage is 0.24.

For UAACAGGGGGCCACAGCAGAAGCGUUCACGUCGCAGCCCCUGUCAGAUUCUGGUGAAUCUGCAGAUUCUGCUGUAUUUCUC [G63A A64G A77U], the self-cleavage came to 0.42.

On to UAACAGGGGGCCACAGCAGAAGCGUUCACGUCGCAGCCCCUGUCAGAUUCUGGUGAAUCUGCGAAUUCUAGUGCAUAUCUC [G70A C71G U74C], for which the self-cleavage worked out at 0.21.

Regarding UAACAGGGGGCCACAGCAGAAGCGUUCACGUCGCAGCCCCUGUCAGAUUCUGGUGAAUCUGCGAGUUCAGCUGCAUAUCUC [A65G U69A U74C], the self-cleavage stood at 0.24.

For the variant UAACAGGGGGCCACAGCAGAAGCGUUCACGUCGCAGCCCCUGUCAGAUUCUGGUGAAUCUGCGAAUUCCGCUGUAUACCCC [U69C U78C U80C], the self-cleavage came out at 0.56.

For UAACAGGGGGCCACAGCAGAAGCGUUCACGUCGCAGCCCCUGUCAGAUUCUGGUGAAUCUACGAAUUCUGCUGUACAUCAC [G61A U76C U80A], the self-cleavage came to 1.01.
